{"source": "patent US20100260668A1", "about": "(published 2010)", "binders": {"B1": {"name": "DVD032 (bispecific antibody, human IgG1, kappa)", "heavy": "EVQLLESGGGLVQPGGSLRLSCTASGFTFSSYAMNWVRQAPGKGLEWVSAISGSGGTTFYADSVKGRFTISRDNSRTTLYLQMNSLRAEDTAVYYCAKDLGWSDSYYYYYGMDVWGQGTTVTVSSASTKGP[omitted - about 450 residues with a human IgG1 Fc]", "light": "DIQMTQFPSSLSASVGDRVTITCRASQGIRNDLGWYQQKPGKAPKRLIYAASRLHRGVPSRFSGSGSGTEFTLTISSLQPEDFATYYCLQHNSYPCSFGQGTKLEIKRTVAA[omitted - about 200 residues]", "notes": "DVD-Ig; also called IGF1R and HER-2 DVD-Ig"}}, "target": "T1, IGF1R", "T1 construct": "whole, on cells; also called insulin-like growth factor receptor", "assay": "flow cytometry on cells carrying the target, 2 ug/mL; N-terminal VD"}
{"binder": "B1", "values": [{"measurement": "FACS Geometric Mean N-terminal", "result": 34.6}]}
